The target in assay [1] is T1, V5-SBP-tagged Dm Roquin M4 mutant (Drosophila melanogaster) (UniProt Q9VV48).
T1 sequence: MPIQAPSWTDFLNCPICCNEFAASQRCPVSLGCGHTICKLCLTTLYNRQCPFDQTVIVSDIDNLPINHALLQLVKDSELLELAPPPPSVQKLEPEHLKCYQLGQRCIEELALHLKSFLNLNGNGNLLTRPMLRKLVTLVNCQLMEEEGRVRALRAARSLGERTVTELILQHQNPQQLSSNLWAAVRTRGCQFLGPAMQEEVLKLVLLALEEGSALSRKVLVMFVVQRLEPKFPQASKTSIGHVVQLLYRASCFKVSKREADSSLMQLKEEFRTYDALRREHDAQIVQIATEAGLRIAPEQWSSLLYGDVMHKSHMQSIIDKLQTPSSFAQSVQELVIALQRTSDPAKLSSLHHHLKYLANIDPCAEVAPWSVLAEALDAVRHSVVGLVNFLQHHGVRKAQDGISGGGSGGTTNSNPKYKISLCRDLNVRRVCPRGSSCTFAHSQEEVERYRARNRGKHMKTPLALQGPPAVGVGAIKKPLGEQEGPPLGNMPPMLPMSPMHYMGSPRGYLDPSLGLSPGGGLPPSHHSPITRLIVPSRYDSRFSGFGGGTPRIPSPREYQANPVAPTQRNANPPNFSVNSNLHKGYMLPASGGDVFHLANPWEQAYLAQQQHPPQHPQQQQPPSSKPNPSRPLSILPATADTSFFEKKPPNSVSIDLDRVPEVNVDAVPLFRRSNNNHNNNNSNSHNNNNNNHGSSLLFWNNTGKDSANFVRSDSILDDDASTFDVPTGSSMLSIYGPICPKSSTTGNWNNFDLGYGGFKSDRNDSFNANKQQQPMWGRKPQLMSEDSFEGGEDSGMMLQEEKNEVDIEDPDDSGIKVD
In words: pull-down; SBP pulldown from lysates of HEK293T cells expressing V5-SBP-tagged Dm Roquin (bait) together with CAF40-HA-MBP and CN9BD-HA; HA-tagged proteins detected by western blotting.

Chains of the proteins cited; added tags and fusions are not shown. Lines headed by an entry give the natural chain unless they say otherwise; changes in a name come on top. Residues count along the entry.
UniProt A5YKK6, residues 1093-2371: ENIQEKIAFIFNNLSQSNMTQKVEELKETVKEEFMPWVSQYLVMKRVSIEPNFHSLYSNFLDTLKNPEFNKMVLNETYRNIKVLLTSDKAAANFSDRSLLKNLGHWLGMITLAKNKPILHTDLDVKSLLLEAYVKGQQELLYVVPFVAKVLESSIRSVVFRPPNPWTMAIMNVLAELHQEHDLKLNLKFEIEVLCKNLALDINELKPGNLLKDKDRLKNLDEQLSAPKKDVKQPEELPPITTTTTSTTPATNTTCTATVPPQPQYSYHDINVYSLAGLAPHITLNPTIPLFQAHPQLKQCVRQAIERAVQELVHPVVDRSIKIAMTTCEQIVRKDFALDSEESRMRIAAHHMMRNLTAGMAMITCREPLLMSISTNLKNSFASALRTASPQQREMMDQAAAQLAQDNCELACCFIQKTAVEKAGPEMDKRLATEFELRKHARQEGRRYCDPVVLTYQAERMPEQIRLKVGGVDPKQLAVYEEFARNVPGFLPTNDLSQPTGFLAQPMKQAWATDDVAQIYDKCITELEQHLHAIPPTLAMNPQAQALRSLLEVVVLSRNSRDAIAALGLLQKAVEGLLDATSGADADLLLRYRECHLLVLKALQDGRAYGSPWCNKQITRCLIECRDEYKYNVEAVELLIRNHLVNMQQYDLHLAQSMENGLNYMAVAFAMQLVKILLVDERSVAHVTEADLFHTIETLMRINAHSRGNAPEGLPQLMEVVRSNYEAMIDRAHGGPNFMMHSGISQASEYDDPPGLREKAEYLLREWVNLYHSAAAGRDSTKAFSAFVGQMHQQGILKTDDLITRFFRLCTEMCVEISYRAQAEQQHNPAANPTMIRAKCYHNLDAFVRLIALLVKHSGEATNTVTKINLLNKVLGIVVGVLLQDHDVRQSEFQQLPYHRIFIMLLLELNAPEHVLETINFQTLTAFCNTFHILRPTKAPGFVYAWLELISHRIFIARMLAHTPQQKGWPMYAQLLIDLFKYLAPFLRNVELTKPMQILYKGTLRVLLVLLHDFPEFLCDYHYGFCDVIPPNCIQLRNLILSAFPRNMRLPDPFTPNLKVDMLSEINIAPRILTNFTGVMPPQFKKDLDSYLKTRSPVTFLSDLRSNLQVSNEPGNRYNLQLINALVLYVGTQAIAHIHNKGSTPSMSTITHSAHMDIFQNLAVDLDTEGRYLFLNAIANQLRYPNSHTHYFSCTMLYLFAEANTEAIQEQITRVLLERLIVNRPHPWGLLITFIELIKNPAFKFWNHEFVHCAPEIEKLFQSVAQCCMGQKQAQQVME
UniProt Q92600: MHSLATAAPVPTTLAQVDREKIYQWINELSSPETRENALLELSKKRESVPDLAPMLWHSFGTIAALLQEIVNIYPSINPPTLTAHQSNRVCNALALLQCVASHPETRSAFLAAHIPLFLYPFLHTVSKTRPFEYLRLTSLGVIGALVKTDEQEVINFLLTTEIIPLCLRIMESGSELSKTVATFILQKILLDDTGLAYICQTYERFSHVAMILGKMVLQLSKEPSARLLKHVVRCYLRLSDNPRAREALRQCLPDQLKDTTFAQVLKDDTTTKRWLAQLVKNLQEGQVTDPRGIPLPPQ

Assay [2] addresses T2, V5-SBP-tagged Dm Roquin (full-length) (Drosophila melanogaster) (UniProt Q9VV48).
T2 sequence: T1 sequence with E793I, E801L, E805L, E809V
The assay is described as above.

The target of assay [3] is T3, V5-SBP-tagged Dm Roquin ΔCBM (Drosophila melanogaster) (UniProt Q9VV48).
T3 sequence: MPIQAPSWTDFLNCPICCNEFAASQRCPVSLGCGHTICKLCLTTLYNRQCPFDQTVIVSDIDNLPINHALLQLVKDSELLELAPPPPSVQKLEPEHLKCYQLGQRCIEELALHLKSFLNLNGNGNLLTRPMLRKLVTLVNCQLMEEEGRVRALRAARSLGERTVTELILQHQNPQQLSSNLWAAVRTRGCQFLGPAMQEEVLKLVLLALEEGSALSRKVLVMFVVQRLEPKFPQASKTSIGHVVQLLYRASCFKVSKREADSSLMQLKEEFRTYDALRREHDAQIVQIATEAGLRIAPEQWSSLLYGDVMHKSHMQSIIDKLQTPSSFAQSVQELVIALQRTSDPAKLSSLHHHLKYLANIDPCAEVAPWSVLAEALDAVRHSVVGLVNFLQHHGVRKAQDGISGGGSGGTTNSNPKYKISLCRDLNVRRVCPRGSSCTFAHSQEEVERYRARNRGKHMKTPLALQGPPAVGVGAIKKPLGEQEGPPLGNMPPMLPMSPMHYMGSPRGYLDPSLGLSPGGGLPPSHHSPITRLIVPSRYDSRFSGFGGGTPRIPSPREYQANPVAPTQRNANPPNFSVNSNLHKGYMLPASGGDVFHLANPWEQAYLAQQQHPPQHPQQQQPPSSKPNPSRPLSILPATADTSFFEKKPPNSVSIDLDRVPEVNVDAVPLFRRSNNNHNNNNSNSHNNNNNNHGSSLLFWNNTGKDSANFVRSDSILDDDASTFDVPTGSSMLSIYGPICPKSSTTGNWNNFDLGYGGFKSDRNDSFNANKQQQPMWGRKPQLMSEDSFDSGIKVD
The description is as above.

In assay [4] the target is MBP-NOT1 (residues 1093–2371) (human) (UniProt A5YKK6). The assay is described as follows: co-purification of co-expressed proteins; five human proteins co-expressed in E. coli; amylose resin, tag cleavage, HiTrap Heparin, Superdex 200 size exclusion.
For assay [5], the target named is T4, MBP-tagged Dm Roq-CC mutant M2 (Drosophila melanogaster) (UniProt Q9VV48).
T4 sequence: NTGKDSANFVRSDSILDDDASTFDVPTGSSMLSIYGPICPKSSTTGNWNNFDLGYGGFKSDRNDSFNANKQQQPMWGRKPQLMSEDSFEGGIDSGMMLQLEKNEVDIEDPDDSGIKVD
In words: pull-down; in vitro MBP pulldown: purified MBP-tagged Roquin fragments (40 μg) with equimolar purified CCR4-NOT proteins or subcomplexes on amylose resin; 50 mM HEPES-NaOH pH 7.5, 200 mM NaCl, 2 mM DTT; 1 h; maltose elution, SDS-PAGE, Coomassie; both purified.

Assay [6] has as its target T5, MBP-tagged Dm Roq-CC mutant M4 (Drosophila melanogaster) (UniProt Q9VV48).
T5 sequence: T4 sequence with I92E, L100E
The assay is described as above.

The target in assay [7] is T6, MBP-tagged Dm Roq-CC-ΔCBM (Drosophila melanogaster) (UniProt Q9VV48).
T6 sequence: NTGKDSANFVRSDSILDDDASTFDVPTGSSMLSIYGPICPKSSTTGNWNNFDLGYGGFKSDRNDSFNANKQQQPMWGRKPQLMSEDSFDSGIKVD
The assay is described as above.

Positions count from the first letter of the chain named. Results are given in words; binding and its absence hold for the method and conditions named. For some of these results: Binding seen in cells or lysates may run through a third protein. Some entries that bind do so weakly or less than the wild type. For some of these results: Where a sequence is shown, tags or fusion partners need not be part of it.

As to “CAF40-HA-MBP (expressed in HEK293T) (from UniProt Q92600 1-299)”, the binding entry is “no binding” in assay [1], “binds” in assay [2] and “no binding” in assay [3].
For “Hs CAF40 ARM domain (residues 19–285) (from UniProt Q92600 19-285) (domain or fragment)”, the binding entry is “binds” in assay [4], “no binding” in assay [5], “no binding” in assay [6] and “no binding” in assay [7].

The values above are taken from article PMC5303829, “A CAF40-binding motif facilitates recruitment of the CCR4-NOT complex to mRNAs targeted by Drosophila Roquin” (Nature Communications, 2017).
